According to the supplement of paper PMC4967469:
A lower IC50 marks a more sensitive line; a fit beyond the top or the lowest dose is shown as a bound at that dose. AUC sums up the same curve from the lowest dose to the 256-fold higher top dose: 1 means no effect, lower means more sensitive. For some of these results: Where the top dose is marked as inferred, it was derived from the fitted curves, not read from the paper.

Tests used:
Assay in all cases: Viability of human cancer cell lines after 72 h of drug (GDSC screen)
BMS-345541 = compound: Cc1ccc2nc(NCCN)c3ncc(C)n3c2c1 [BMS-345541]; conditions: top dose 16 µM
Experimental: (§1)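 Human cancer cell lines in 384-well plates, medium with 10% serum, drug for 72 h over a 256-fold dose range (nine 2-fold or five 4-fold steps up to the top dose). Adherent lines were fixed and stained with the nucleic acid dye Syto60, suspension lines read with resazurin; signal relative to control wells, capped at 0 and 100%. One two-parameter sigmoid per drug and line, fitted in a mixed model over all curves with the slope shared within a line.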

Etoposide = compound: COc1cc([C@@H]2c3cc4c(cc3[C@@H](O[C@@H]3O[C@@H]5CO[C@@H](C)O[C@H]5[C@H](O)[C@H]3O)[C@H]3COC(=O)[C@H]23)OCO4)cc(OC)c1O [Etoposide]; conditions: top dose 16 µM
Experimental: as §1

AZD7762 = compound: NC(=O)Nc1cc(-c2cccc(F)c2)sc1C(=O)N[C@H]1CCCNC1 [AZD7762]; conditions: top dose 2 µM
Experimental: as §1

GSK-650394 = compound: O=C(O)c1ccc(-c2c[nH]c3ncc(-c4ccccc4)cc23)cc1C1CCCC1 [GSK-650394]; conditions: top dose 16 µM; top dose inferred
Experimental: as §1

Bexarotene = compound: C=C(c1ccc(C(=O)O)cc1)c1cc2c(cc1C)C(C)(C)CCC2(C)C [Bexarotene]; conditions: top dose 8 µM
Experimental: as §1

NPK76-II-72-1 = compound: COc1cc(C(=O)NC2CCN(C)CC2)ccc1Nc1ncc2c(n1)N(C1CCCC1)C(C)CC(=O)N2C [NPK76-II-72-1]; conditions: top dose 10.24 µM; top dose inferred
Experimental: as §1

XAV 939 = compound: Oc1nc(-c2ccc(C(F)(F)F)cc2)nc2c1CSCC2 [XAV 939]; conditions: top dose 5 µM; top dose inferred
Experimental: as §1

Cell Line	AUC (BMS-345541)	IC50 (BMS-345541) [µM]	AUC (Etoposide)	IC50 (Etoposide) [µM]	AUC (AZD7762)	IC50 (AZD7762) [µM]	AUC (GSK-650394)	IC50 (GSK-650394) [µM]	AUC (Bexarotene)	IC50 (Bexarotene) [µM]	AUC (NPK76-II-72-1)	IC50 (NPK76-II-72-1) [µM]	AUC (XAV 939)	IC50 (XAV 939) [µM]
201T (lung adenocarcinoma, adherent)	0.86	> 16	0.381	0.433	0.64	0.339	0.795	9.64	0.933	> 8	0.887	> 10.2	–	–
BC-3 (B-cell lymphoma, suspension)	0.878	13.3	0.663	2.68	–	–	0.718	3.81	0.958	> 8	0.484	0.583	–	–
BICR31 (head and neck, adherent)	0.935	> 16	0.552	1.39	–	–	0.86	13.6	0.955	> 8	0.979	> 10.2	–	–
C-4-I (cervix, adherent)	0.895	> 16	0.555	1.43	0.427	0.0778	0.7	3.86	0.898	> 8	0.964	> 10.2	–	–
CAL-148 (breast, suspension)	0.907	> 16	0.439	0.692	–	–	0.956	> 16	0.989	> 8	0.812	4.96	–	–
Caov-3 (ovary, adherent)	0.922	> 16	0.895	15.4	–	–	0.981	> 16	0.991	> 8	0.877	8.13	–	–
D-247MG (glioma, adherent)	–	–	0.829	15.5	0.886	> 2	–	–	–	–	0.736	3.94	0.954	> 5
D-336MG (glioma, adherent)	0.852	> 16	0.886	> 16	0.68	0.463	–	–	–	–	0.845	> 10.2	0.927	> 5
DMS-273 (small cell lung carcinoma, adherent)	0.855	13.9	0.42	0.596	0.801	1.05	0.852	13.5	0.87	> 8	0.673	2	–	–
ECC12 (stomach, suspension)	–	–	0.508	1.06	–	–	–	–	–	–	–	–	–	–
GCIY (stomach, adherent)	0.958	> 16	0.495	0.97	0.837	1.59	0.861	> 16	0.901	> 8	0.967	> 10.2	–	–
GP5d (large intestine, adherent)	0.91	> 16	0.694	3.26	–	–	0.917	> 16	0.884	7.07	0.85	6.56	0.99	> 5
H2803 (mesothelioma, adherent)	0.892	> 16	0.86	> 16	–	–	0.98	> 16	0.98	> 8	0.956	> 10.2	0.937	> 5
H2804 (mesothelioma, adherent)	0.922	> 16	0.542	1.31	–	–	0.928	> 16	0.986	> 8	0.938	> 10.2	0.984	> 5
H-EMC-SS (chondrosarcoma, adherent)	0.892	> 16	0.869	> 16	–	–	0.951	> 16	0.961	> 8	0.721	3.3	0.979	> 5
HCC1599 (breast, suspension)	0.712	4.4	0.403	0.519	–	–	0.909	> 16	0.975	> 8	0.462	0.496	–	–
HCC-33 (small cell lung carcinoma, adherent)	0.886	> 16	0.964	> 16	–	–	0.955	> 16	0.986	> 8	0.771	3.97	–	–
IST-MES1 (mesothelioma, adherent)	0.939	> 16	0.939	> 16	–	–	0.932	> 16	0.988	> 8	0.914	> 10.2	0.915	> 5
KP-N-YS (neuroblastoma, adherent)	0.795	8.72	0.695	3.85	–	–	0.704	4.12	–	–	0.796	5.6	–	–
LB996-RCC (kidney, adherent)	0.983	> 16	0.887	> 16	–	–	0.936	> 16	0.903	> 8	0.983	> 10.2	0.841	4.31
LB1047-RCC (kidney, adherent)	0.843	13.5	0.615	2.17	0.419	0.0728	0.7	3.97	–	–	0.979	> 10.2	0.848	4.47
LNCaP-Clone-FGC (prostate, adherent)	0.864	> 16	0.818	10.7	–	–	0.971	> 16	0.983	> 8	0.912	> 10.2	0.978	> 5
